In PubChem BioAssay AID1159614 (National Center for Advancing Translational Sciences (NCATS), 2016):
The whole screen tested about 45,000 compounds, of which about 65 (0.1%) were called active. The call rests on the fitted dose curve; in most records, active means well fitted activation curve with a large enough effect; inconclusive means small, poorly fitted or top-dose-only effect; inactive means no such curve, though single readings can be large or run the other way. This is one part of the list.

Each compound was assayed against Galactocerebrosidase (Homo sapiens) (UniProt P54803) (assay: A Novel Cell-Based Assay to Identify Small Molecules for B -Galactocerebrosidase). Details: 145M-Twi-hGALC-G270D cells (Twitcher mouse brain line with human GALC G270D), HMU-beta-Gal fluorescence, 48 h; series mostly up to 57.5 µM; activation: at the top concentration.
Sequence of UniProt P54803 (P54803 whole entry, looked up): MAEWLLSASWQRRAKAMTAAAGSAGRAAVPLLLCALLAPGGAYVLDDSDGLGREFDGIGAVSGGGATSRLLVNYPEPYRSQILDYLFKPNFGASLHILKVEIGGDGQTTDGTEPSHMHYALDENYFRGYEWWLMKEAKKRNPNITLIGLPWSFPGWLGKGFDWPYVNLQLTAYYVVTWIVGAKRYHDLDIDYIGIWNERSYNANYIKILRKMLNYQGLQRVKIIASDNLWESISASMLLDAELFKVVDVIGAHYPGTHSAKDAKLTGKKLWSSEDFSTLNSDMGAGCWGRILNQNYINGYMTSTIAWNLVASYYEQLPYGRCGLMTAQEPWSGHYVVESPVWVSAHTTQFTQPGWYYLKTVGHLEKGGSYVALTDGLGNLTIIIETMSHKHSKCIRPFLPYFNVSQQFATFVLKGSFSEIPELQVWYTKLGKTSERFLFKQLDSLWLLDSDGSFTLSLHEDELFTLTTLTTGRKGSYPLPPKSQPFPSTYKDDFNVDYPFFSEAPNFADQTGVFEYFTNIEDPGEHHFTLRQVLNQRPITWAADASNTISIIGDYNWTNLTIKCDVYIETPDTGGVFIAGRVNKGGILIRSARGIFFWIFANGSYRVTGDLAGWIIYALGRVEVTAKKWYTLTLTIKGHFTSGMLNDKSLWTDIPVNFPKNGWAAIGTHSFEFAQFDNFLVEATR
Procedure, shortened: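 Fluorogenic HMU-b-Gal hydrolysis (0.1 mM final, pH 5.2 citrate-phosphate with 1 mg/mL sodium taurocholate; carbonate stop buffer) measures mutant GALC activity after compound treatment of live 145M-Twi Twitcher brain cells stably carrying human GALC-G270D, with wild-type GALC line alongside; activation sought.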
Further: 0% is about no effect; nearly all actives have a fitted effect of over 65% in size.

activation, inactive:
COc1ccc(Nc2c3c(nc4nncn24)CCC3)cc1OC 3.11%, Cc1ccc(S(=O)(=O)N(CCc2ccccc2)CC(=O)Nc2ccc(Br)cc2)cc1 -10.7%, CN(C)CCN(Cc1ccsc1)c1ccccn1 -7.62%, COCCNC(=O)CN1C(=O)c2cccnc2Oc2ccc(Cl)cc21 -5.72%, CCOC(=O)c1ccc(N2C(=O)c3n[nH]c(-c4ccco4)c3C2c2cccc(O)c2)cc1 (stereo not drawn) -1.98%, O=C(Cn1cnc2onc(-c3ccc(Cl)cc3)c2c1=O)Nc1ccc(F)cc1 10%, COc1ccc(-c2nc(CNS(=O)(=O)c3cccc(F)c3)cs2)cc1 -26.5%, Cc1cccc(NC(=O)c2oc3ccccc3c2NC(=O)Cc2coc3ccc(C(C)C)cc23)c1 21.9%, CCc1ccccc1NC(=O)Cn1c(SCc2ccc(F)cc2)nc2ccncc21 -5.28%, COc1ccc(-c2nc(CCNC(=O)c3ccc(Br)o3)cs2)cc1 -8.38%, O=[N+]([O-])c1cc(-c2nc(-c3ccccc3)no2)ccc1N1CCOCC1 -6.85%, CCOc1ccccc1NC(=O)C1=C(C)Nc2ncnn2C1c1ccc(C)o1 (stereo not drawn) -11.7%, CCc1cccc(CC)c1NC(=O)CCS(=O)(=O)c1ccc2c(c1)CCN2C(C)=O -7.79%, Cc1ccc(Nc2sc(C(=O)c3ccccc3)c(N)c2C(N)=O)cc1 3.29%, CC1CCN(C(=O)C2COc3ccccc3C2)CC1 (stereo not drawn) -18.6%, O=C(CCCn1c(=O)c2cccn2c2ccccc21)NCc1ccccc1Br -8.52%, O=C(NCc1ccccc1)C(=O)Nc1c2c(nn1-c1ccccc1)CSC2 -8.98%, Cc1cc(-c2ccc(C)c(S(=O)(=O)NCC3CCN(Cc4ccccc4F)CC3)c2)on1 -10.7%, Cc1ccc(SCC(=O)Nc2ccc3oc(-c4cccc(Cl)c4)nc3c2)cc1 -12.9%, O=C(Cn1ncc2c3ccccc3n(Cc3ccc(F)cc3)c2c1=O)NCc1ccccn1 1.59%, COc1ccc(OC)c(CNCc2c(C(=O)O)n(Cc3cccc(F)c3)c3cc(OC)ccc23)c1 -2.61%, Cc1ccc(C(c2c(O)cc(C)n(Cc3ccco3)c2=O)N2CCC(C)CC2)cc1 (stereo not drawn) -0.815%, Cc1ccc(-c2nc3ccccc3o2)cc1NC(=O)Cc1ccc(Cl)cc1 -12.6%, O=C(CCn1c(=O)c2sccc2n(Cc2ccc(F)cc2Cl)c1=O)NCc1ccc2c(c1)OCO2 -16.9%, O=C(Nc1sc2c(c1C(=O)NCC1CCCO1)CCCC2)c1cc(=O)c2ccccc2o1 (stereo not drawn) -11.8%, Cc1cccc(-c2nc(CN3CCCC(C(=O)NCCc4ccc(Cl)cc4)C3)c(C)o2)c1 (stereo not drawn) -0.68%, COc1ccc2cc3[n+](cc2c1OC)CCc1cc2c(cc1-3)OCO2 -11.9%, Cc1ccccc1CCNC(=O)c1ccc2c(c1)nc1n2CCCCC1 -8.78%
